These results are taken from PubChem BioAssay AID1508642 (National Center for Advancing Translational Sciences (NCATS), 2021).

About 200 (0.47%) of roughly 43,000 compounds were called active. Another 12% or so got no clear call; they are omitted. The call rests on the fitted dose curve; in most records, active means well fitted cell-killing curve with a large enough effect; inconclusive means small, poorly fitted or top-dose-only effect, or effect the other way; inactive means flat fitted curve, though single readings scatter. Some of the results follow.
On the % scale 0 is the no-effect control and ±100 the full control effect.

The nature of the test: Cell viability qHTS assay in S16 Pmp22-F2sN cells. Further: nearly all actives have a fitted effect of over 65% in size. As to conditions: S16 Pmp22-F2sN Schwann cells (luciferase reporters placed in the Pmp22 gene) viability, CellTiter-Glo, 24 h; series mostly up to 57.5 µM; activity change, negative = cytotoxicity: at the top concentration. Put shortly:
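CellTiter-Glo counter-screen, qHTS, 1536-well. Cells: S16(c9) Pmp22-F2sN, 500-1,000/well in DMEM + 10% FBS. Cpd 23 nL pin transfer, 24 h, 37C/5% CO2. Read: luminescence, CCD imager.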
For orientation: In qHTS, concentration-response curves come from the screen itself.
Regarding `COc1ccc(N(CC(=O)NCCc2ccccc2)S(=O)(=O)c2ccccc2)c(OC)c1`, the “activity change, negative = cytotoxicity” value was inactive: 0.988%.
The value for `CCOC(=O)C1CCN(c2ncnc3c2nnn3C)CC1` was inactive: -15.6%; that for `Cc1ccc(CN(C(=O)COc2cccc([N+](=O)[O-])c2)c2ccccn2)cc1` was inactive: 0.293%; that for `CC(C)NC(=O)c1ccc(-n2c(-c3ccccc3)cc3c2CCCCC3)cc1` was inactive: -0.592%.
For the molecule `COc1ccc(Cl)cc1NC(=O)Cn1cc(C(=O)c2ccncc2)c(=O)c2cc(C)ccc21`, the “activity change, negative = cytotoxicity” value was inactive: 7.71%.
Consider `Nc1ncc(S(=O)(=O)NCc2ccc(Cl)cc2)cn1`, for which the “activity change, negative = cytotoxicity” value is inactive: -1.23%.
The value for `Cc1cc(C)cc(OCC(=O)Nc2ccc(-c3nc4ccccc4s3)cc2)c1` was inactive: 8.1%; that for `COc1cc2nc(SCc3cccc(Cl)c3)n3nc(CCn4nc(C)cc4C)nc3c2cc1OC` was inactive: -0.36%; that for `CCOc1ccc(-c2cc(OC(=O)c3ccccc3)c3c(C)oc(C)c3c(=O)c2)cc1` was inactive: -3.09%.
The value for `Cn1nnc2c(N3CCN(c4ccccc4F)CC3)ncnc21` was inactive: -5.14%; that for `O=C(CSc1nc2ccccc2n1Cc1ccccc1F)NCc1ccccc1` was inactive: 7.96%; that for `Cc1ccccc1C(=O)Nc1cccc(C(=O)OCc2cc(=O)n3c4c(sc3n2)CCCC4)c1` was inactive: -1%.
As for `CCC(Sc1nc2cc(OC)c(OC)cc2c(=O)n1CCc1ccc(Cl)cc1)C(=O)NCCOC` (stereo not drawn), the figure is inactive: 8.91%; as for `Cc1ccc(C)c(N2C(=O)N(Cc3cc(=O)n4ccccc4n3)c3ccccc3S2(=O)=O)c1`, inactive: 17.9%; as for `CCOC(=O)c1c(C)oc2ncnc(Nc3ccc(OCC)cc3)c12`, inactive: 3.16%.
Take `COc1cccc(C(=O)c2sc3nc(-c4ccccc4)cc(C(F)(F)F)c3c2N)c1`: the “activity change, negative = cytotoxicity” value is inactive: 14.6%.
As for `Cc1ccc(C)n1-c1nnc(N2CCCC(C(=O)Nc3ccc(C(C)C)cc3)C2)s1` (stereo not drawn), the figure is inactive: -12.5%.
The value for `COC(=O)c1ccccc1NC(=O)Cn1c(=O)n(Cc2ccc(C(=O)NCc3ccc4c(c3)OCO4)cc2)c(=O)c2ccccc21` was inactive: -1.84%; that for `Cc1ccc(N(CC(=O)NCCc2ccccc2)S(=O)(=O)N(C)C)cc1` was inactive: -1.33%; that for `COc1cccc(NC(=O)CNC(=O)Cn2c(C)cc3ccccc3c2=O)c1` was inactive: 7.22%.
The value for `CCCCOc1ccc(C(=O)Nc2ccc(-c3nc4ccccc4s3)cc2C)cc1` was inactive: 11%.
As for `Cn1ccc2cc(S(=O)(=O)N3CCC(C(=O)NCCc4ccccc4)CC3)ccc21`, the “activity change, negative = cytotoxicity” value was inactive: 3.91%.
The value for `COc1cc(C)ccc1OCCSc1nc2ccc(NC(=O)c3ccc(F)cc3)cc2s1` was inactive: 0.231%; that for `N#Cc1ccccc1NC(=O)Cn1cnc2onc(-c3cccc(F)c3)c2c1=O` was inactive: 13.2%.
On to `CCc1cccc(NC(=O)Nc2csc3c2CCCC3)c1`, for which the “activity change, negative = cytotoxicity” value was inactive: 15.3%.
The value for `O=C(CN1C(=O)CCc2cc(S(=O)(=O)N3CCOCC3)ccc21)NCc1ccc(F)cc1` was inactive: 1.73%; that for `Cc1ccc(CNC(=O)c2ccc3c(c2)nc(C)n3-c2cc(C)cc(C)c2)cc1` was inactive: -16.7%; that for `O=C(COc1ccccc1F)Nc1ccc(-c2nc3ccccc3s2)cc1` was inactive: 8.13%.
The value for `COc1ccc(OC)c(NC(=O)N2CCN(S(=O)(=O)c3ccc4c(ccn4C)c3)CC2)c1` was inactive: 1.59%; that for `COc1ccc(C(CNC(=O)c2oc3ccc(C)cc3c2C)N2CCOCC2)cc1` (stereo not drawn) was inactive: 11.7%; that for `CCn1cc(C(=O)N2CCN(c3cccc(Cl)c3)CC2)c(=O)c2cc(S(=O)(=O)N3CCCCC3)ccc21` was inactive: -7.69%.
For the molecule `COc1ccc(OC)c(NC(=O)Cn2c(=O)n(Cc3ccccc3)c(=O)c3ccccc32)c1`, the “activity change, negative = cytotoxicity” value was inactive: 14.4%.
For `Cc1ccc2nc(-c3ccc(O)cc3)c(Nc3ccc4c(c3)OCCO4)n2c1`, the “activity change, negative = cytotoxicity” value was inactive: -20.9%.
The value for `CCCSCCCNC(=O)C1CCN(c2nn3cc(-c4ccc(F)cc4)nc3s2)CC1` was inactive: -29.3%; that for `CCCn1c(-c2ccc(S(=O)(=O)N3CCOCC3)cc2)csc1=Nc1ccc(OCC)cc1` was inactive: 14.1%.
For the molecule `CC(C)Cn1c(=O)c2ccccc2n2c(CCC(=O)N3CCN(c4ccccc4F)CC3)nnc12`, the “activity change, negative = cytotoxicity” value was inactive: 25.3%.
As for `CCOC(=O)c1c(C)oc2nc(C)nc(Nc3ccc(CC)cc3)c12`, the figure is inactive: 13.5%.
As for `CCn1c(C(=O)N2CCC(C(=O)NCCc3ccc(OC)cc3OC)CC2)cc2sccc21`, the figure is inactive: -16.3%; as for `Cc1cc(C)cc(NS(=O)(=O)c2ccc3c(c2)NC(=O)C(C)S3)c1` (stereo not drawn), inactive: 1.86%.
The value for `CCOCCCNC(=O)C1CCC(CNS(=O)(=O)c2ccc(NC(C)=O)cc2)CC1` (stereo not drawn) was inactive: -2.56%.
As for `Cc1ccc(C)c(CN2C(=O)c3ccccc3S(=O)c3ccc(C(=O)NCc4ccccc4)cc32)c1` (stereo not drawn), the “activity change, negative = cytotoxicity” value was inactive: 13%.
As for `COc1ccc(NC(=O)c2ccc(-c3nc(CSc4ccccc4)c(C)o3)cc2)cc1OC`, the figure is inactive: -2%; as for `COc1ccccc1Cc1nc2ccccc2[nH]c1=O`, inactive: 10.6%; as for `Cc1c(C(=O)NCc2ccccc2Br)oc2c1-c1[nH]ncc1CC2`, inactive: -4.14%.
In the case of `CCc1ccc(S(=O)(=O)c2nnn3c2nc(NC2CCCCCC2)c2sccc23)cc1`, the “activity change, negative = cytotoxicity” value is inactive: 27.9%.
As to `COc1cccc2c1Oc1ncccc1N(C(=O)Nc1ccc(F)c(Cl)c1)C2`, the “activity change, negative = cytotoxicity” value was inactive: 5.79%.
For the molecule `CCOC(=O)C(CC)Sc1ccc2nnc(CCNS(=O)(=O)c3ccc(C)cc3)n2n1` (stereo not drawn), the “activity change, negative = cytotoxicity” value is inactive: 14.7%.
As for `CCOc1ccc(CC(=O)NCCc2sc3nc(-c4ccc(OC)cc4)nn3c2C)cc1`, the figure is inactive: -0.761%.
